Hit rate of the full screen: of about 200,000 compounds, about 4,500 (2.2%) were called active. The shares of active, inactive and inconclusive entries below differ from those in the screen. Calls follow the shape of the dose curve; as a rule, active = well fitted inhibition curve with a large enough effect; inconclusive = small, poorly fitted or top-dose-only effect, or effect the other way; inactive = flat fitted curve, though single readings scatter. Potencies of inconclusive entries are doubtful fits and often do not repeat.
Target: Cruzipain (Trypanosoma cruzi) (UniProt P25779)
Sequence of UniProt P25779 (P25779 whole entry, looked up): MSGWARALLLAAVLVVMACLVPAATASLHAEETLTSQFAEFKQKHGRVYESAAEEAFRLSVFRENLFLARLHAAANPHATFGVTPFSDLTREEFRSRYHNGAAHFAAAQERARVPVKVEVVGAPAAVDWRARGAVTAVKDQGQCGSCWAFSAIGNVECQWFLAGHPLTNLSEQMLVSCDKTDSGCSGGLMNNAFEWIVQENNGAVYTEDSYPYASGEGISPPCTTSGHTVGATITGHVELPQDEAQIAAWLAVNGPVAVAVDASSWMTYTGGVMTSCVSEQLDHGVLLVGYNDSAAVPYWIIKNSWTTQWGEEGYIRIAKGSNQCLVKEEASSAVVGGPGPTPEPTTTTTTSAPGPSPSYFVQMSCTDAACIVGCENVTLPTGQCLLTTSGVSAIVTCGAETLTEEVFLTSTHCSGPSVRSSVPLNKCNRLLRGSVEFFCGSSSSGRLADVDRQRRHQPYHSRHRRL
Test: qHTS Assay for Promiscuous and Specific Inhibitors of Cruzain (without detergent); also: nearly all actives have a fitted effect of over 40% in size;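 as to max response, negative = inhibition: plate controls were enzyme without inhibitor for no effect and buffer without enzyme for full effect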
Settings: purified cruzain, Z-FR-AMC fluorescence, no detergent
Summary of the method: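 Detergent-free condition (0.00005% Triton X-100) in acetate buffer pH 5.5 with DTT. 1.5 nM enzyme and compound were pre-mixed 15 min, then 2 uM Z-FR-AMC substrate added; reaction progress from fluorescence change between first and third reads (60 s).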
Potency is read from the fitted curve at half-maximal effect; tags tell the direction and shape of the fitted curve.

Row | SMILES | max response, negative = inhibition | Potency
1 | CC(=O)NC(Cc1c[nH]c2ccccc12)C(=O)NCc1ccc2c(c1)OCO2 (stereo not given) | inactive: -13.3% | –
2 | Cc1cccc(OCC(=O)Nc2cc(C)c(C)cc2O)c1 | – | inconclusive: 31.6 µM [inhibitor, single point]
3 | COc1ccccc1CNc1cc(-c2ccccc2)nc2nncn12 | inactive: -22.2% | –
4 | Cc1ccc2nc(NC(=O)c3ccc(-c4nc5ccccc5s4)s3)sc2c1 | – | active: 3.98 µM
5 | COCc1nc2ccccc2n1CCCOc1ccccc1 | inactive: -2.19% | –
6 | O=C(Cc1cc(=O)oc2cc(O)ccc12)NCC1CCC(C(=O)O)CC1 (stereo not given) | inactive: -87.4% | –
7 | CCc1ccc(NC(=O)c2ccc3c(c2)N(Cc2ccc(C)cc2)CCS3)cc1 | – | active: 15.8 µM
8 | Cc1cc(C)cc(N(CC(=O)N2CCN(c3ccccc3)CC2)S(=O)(=O)c2c(C)noc2C)c1 | – | inconclusive: 15.8 µM [activator, partial curve]
9 | CC(C)C(=O)Nc1ccc(C(=O)NNC(=O)CCCOc2ccc(Cl)cc2Cl)cc1 | – | inconclusive: 39.8 µM [inhibitor, single point]
10 | Cc1ccc(C)n1-c1nnc(N2CCC(C(=O)Nc3ccccc3Br)CC2)s1 | inactive: 9.12% | –
11 | CCOC(=O)c1c(/N=C/N(C)C)sc(/C=N/Nc2ccccc2)c1-c1ccc(Cl)cc1 | – | inconclusive: 31.6 µM [inhibitor, single point]
12 | CC(=O)Nc1ccc(C(=O)N/N=C/c2ccccc2OC(=O)c2ccc(Cl)cc2)cc1 | – | inconclusive: 31.6 µM [activator, single point]
13 | CC[C@H]1C2=C3C(CC[C@H]4C(OCc5ccc(F)cc5C(F)(F)F)OC[C@](C)([C@@H]34)N(C(=O)OC(C)(C)C)C2)C(COC(C)=O)C1COC(C)=O (stereo not given in full) | – | inconclusive: 31.6 µM [activator, single point]
14 | Fc1ccc(NC(=S)N/N=C/c2ccc(F)c(F)c2)c(F)c1 | – | inconclusive: 39.8 µM [inhibitor, single point]
15 | CCOC(=O)c1cc(-c2ccncc2)nc2c1c(C)nn2C | – | inconclusive: 31.6 µM [activator, single point]
16 | Cc1cc(NC(=O)CSc2nc(C(C)C)nc3sc4c(c23)CCCC4)no1 | – | inconclusive: 39.8 µM [inhibitor, single point]
17 | Cc1cccc(OCC(=O)Nc2ccc3c4c(cccc24)CC3)c1C | – | inconclusive: 39.8 µM [inhibitor, single point]
18 | N#Cc1ccsc1NC(=O)COC(=O)c1cc2ccccc2cc1O | – | inconclusive: 31.6 µM [inhibitor, single point]
19 | Oc1c(C(c2ccc(Cl)cc2Cl)N2CCOCC2)sc2nc(-c3ccco3)nn12 (stereo not given) | – | inconclusive: 39.8 µM [activator, single point]
20 | Cc1ccc(S(=O)(=O)N[C@@H](CCCCN)C(=O)CCl)cc1 | – | active: 1 µM
21 | CCc1ccc(NC(=O)Cn2c(=O)c(-c3ccccc3NC(C)=O)nc3ccccc32)cc1 | inactive: -20.9% | –
22 | CCOC(=O)c1ccc(N2Cc3ccccc3C2)cc1O | – | inconclusive: 3.98 µM [inhibitor, full curve, poor fit]

Row | SMILES | max response, negative = inhibition | Potency
23 | COc1cccc(CNC(=O)CSc2nc(=O)[nH]c3c2CCCC3)c1 | inactive: -12.8% | –
24 | COc1ccc2nc(Nc3nc(CSc4nnc(C)s4)cc(=O)[nH]3)nc(C)c2c1 | – | inconclusive: 39.8 µM [activator, single point]
25 | N#CC(C(=O)Nc1ccc(Cl)c(Cl)c1)=C1Nc2ccccc2N1 | – | inconclusive: 39.8 µM [inhibitor, single point]
26 | CCCOc1ccccc1Cn1c(=O)sc2ccccc21 | inactive: -17% | –
27 | O=C(C1CCN(S(=O)(=O)c2ccc(F)cc2)CC1)N1CC=C(c2ccccc2)CC1 | – | inconclusive: 39.8 µM [inhibitor, single point]
28 | Cc1ccnc(NC(c2ccccc2F)c2ccc3cccnc3c2O)c1 (stereo not given) | – | inconclusive: 39.8 µM [inhibitor, single point]
29 | Cn1cnnc1SCC(=O)c1ccc2c(c1)OCCO2 | – | inconclusive: 10 µM [inhibitor, partial curve]
30 | COC(=O)c1cc(C)sc1NC(=O)c1cccnc1 | inactive: -1.72% | –
31 | CCCCOc1ccc(N(CC(=O)NC2CCCC2)C(=O)CCC(=O)Nc2ccccn2)cc1 | – | inconclusive: 3.16 µM [inhibitor, partial curve, poor fit]
32 | Cc1ccc(N2C(=O)C3C4C=CC(CNC(=S)Nc5cccc(Cl)c5)(O4)C3C2=O)cc1 (stereo not given) | – | inconclusive: 31.6 µM [inhibitor, single point]
33 | Cc1ccc(S(=O)(=O)N/N=c2\sc3ccccc3n2C)cc1 | – | inconclusive: 31.6 µM [inhibitor, single point]
34 | O=C(COC(=O)/C=C/c1cccc(C(F)(F)F)c1)NC(c1ccccc1)c1ccccc1 | – | active: 15.8 µM
35 | Cc1cc(C(=O)CSc2nncs2)c(C)n1-c1ccc2c(c1)OCO2 | – | inconclusive: 31.6 µM [inhibitor, single point]
36 | CC(NC(=O)Cc1cccs1)c1ccc2c(c1)OCO2 (stereo not given) | inactive: 1.87% | –
37 | Cc1ccc(Cl)cc1NC(=O)Cn1nc2c(cc1=O)CC(C)CC2 (stereo not given) | inactive: -4.64% | –
38 | Cc1ccc(-c2cc(C(=O)Nc3ccc4c(c3)OCCO4)c3ccccc3n2)cc1 | – | active: 10 µM
39 | O=C(CC1(O)C(=O)N(CN2CCOCC2)c2ccccc21)c1ccccc1 (stereo not given) | inactive: 2.42% | –
40 | CCn1c(=O)cc(OCC(=O)N2CCN(c3cccc(C(F)(F)F)c3)CC2)c2ccccc21 | – | inconclusive: 39.8 µM [activator, single point]
41 | CN(C)c1ccc(NC(=O)COC(=O)c2cc(Cl)ccc2[N+](=O)[O-])cc1 | – | inconclusive: 31.6 µM [inhibitor, single point]
42 | CCOc1ccccc1NC(=O)Cn1c(=O)n(Cc2ccccc2)c(=O)c2c(C)c(C(=O)N(C)C)sc21 | – | inconclusive: 39.8 µM [activator, single point]
43 | CCN(CC)C(=O)CSc1nc2cc3c(cc2c(=O)n1Cc1ccc(C(=O)NCCc2ccc(OC)c(OC)c2)cc1)OCO3 | – | inconclusive: 31.6 µM [activator, single point]
44 | Cc1nn(-c2ccccc2)c(Cl)c1C(=O)N1CCN(c2ncnc3c2cnn3-c2ccccc2)CC1 | – | inconclusive: 15.8 µM [activator, partial curve]

Row | SMILES | max response, negative = inhibition | Potency
45 | Cc1cc2nc(CCN3CCOCC3)n(S(=O)(=O)c3ccc(C(C)(C)C)cc3)c2cc1C | – | inconclusive: 39.8 µM [activator, single point]
46 | O=C(CSCc1ccccc1)N/N=C/c1ccccc1OCc1ccccc1 | inactive: 0.974% | –
47 | Cc1ccc(-c2cn3c(n2)sc2cc(C(=O)N4CCCCC4)ccc23)cc1 | inactive: 0.933% | –
48 | Cc1cc(C)c2c(=O)cc(C(=O)Nc3ccc(S(=O)(=O)Nc4nc(C)cc(C)n4)cc3)oc2c1 | – | inconclusive: 25.1 µM [activator, single point]
49 | Cc1ccc(CNC(=O)CCCCn2c(=O)c3ccccc3n(Cc3ccc(Cl)cc3)c2=O)cc1 | inactive: 3.89% | –
50 | COc1ccc(/C=C/C(=O)c2ccc(C)s2)cc1 | inactive: 1.57% | –
51 | Cc1ccc2occ(CC(=O)Nc3nnc(C(C)C)s3)c2c1 | – | inconclusive: 31.6 µM [inhibitor, single point]
52 | CN1CCN(C(=O)c2cnn(-c3ccccc3)c2NC(=O)c2ccccc2F)CC1 | inactive: 5.31% | –
53 | Cc1cc(C)cc(-n2nnc(C(=O)NCc3ccc4c(c3)OCO4)c2N)c1 | inactive: 7.62% | –
54 | C=C(C)c1cccc(C(C)(C)NC(=O)Nc2ccccc2OCC)c1 | – | inconclusive: 31.6 µM [inhibitor, single point]
55 | CCOc1ccc(S(=O)(=O)N2CCC(C(N)=O)CC2)c2ccccc12 | – | inconclusive: 25.1 µM [activator, single point]
56 | COc1ccc(CNC(=O)c2ccc3c(c2)N(Cc2ccccc2)C(=O)c2ccccc2S3(=O)=O)cc1 | – | inconclusive: 39.8 µM [inhibitor, single point]
57 | N#C/C(C(=O)N1CCOCC1)=C1/SC(Cc2ccccc2Cl)C(=O)N1c1ccccc1 (stereo not given) | – | inconclusive: 31.6 µM [activator, single point]
58 | CCOC(=O)C1=C(CSc2nc(CC)c(C)cc2C#N)OC(N)=C(C#N)C1c1ccc(OC)cc1 (stereo not given) | – | inconclusive: 7.94 µM [inhibitor, partial curve, poor fit]
59 | CCCN(CCC)C(=O)Cn1c(=O)n(Cc2ccc(C(=O)NCCc3ccc(OC)c(OC)c3)cc2)c(=O)c2ccccc21 | inactive: -1.6% | –
60 | COc1ccc(-c2nc(-c3cccc(C)c3)[nH]c(=O)c2C#N)cc1 | – | active: 10 µM
61 | O=C(Nc1cnn(Cc2ccc(F)cc2)c1)c1cc2nc(-c3ccco3)cc(C(F)(F)F)n2n1 | – | inconclusive: 20 µM [activator, single point]
62 | O=C(c1ccc(F)cc1)[C@@H]1[C@@H](C(=O)c2ccccc2)[C@@]2(C(=O)Nc3ccccc32)[C@H]2c3ccccc3C=CN12 | – | inconclusive: 25.1 µM [inhibitor, partial curve]
63 | CCN1CCN(C(c2cc3cccc(C)c3[nH]c2=O)c2nnnn2Cc2ccccc2)CC1 (stereo not given) | – | inconclusive: 39.8 µM [inhibitor, single point]
64 | CCn1cc(C(=O)NCC2COc3ccccc3O2)c2cc(OC)c(OC)cc2c1=O (stereo not given) | – | inconclusive: 39.8 µM [activator, single point]
65 | COc1cc(NC(=O)c2noc3c2CCc2ccccc2-3)cc(OC)c1OC | – | inconclusive: 31.6 µM [activator, single point]

From PubChem BioAssay AID1476 (National Center for Advancing Translational Sciences (NCATS), 2009)
